This is an account of results in the BET-seq Pho4 binding data (Le et al. 2018).

This is one part of the list. Values were computed here from the reads of four pooled replicates and scatter widely.

For the test, the target named is T1, Pho4 (S. cerevisiae) (UniProt P07270).
T1 sequence: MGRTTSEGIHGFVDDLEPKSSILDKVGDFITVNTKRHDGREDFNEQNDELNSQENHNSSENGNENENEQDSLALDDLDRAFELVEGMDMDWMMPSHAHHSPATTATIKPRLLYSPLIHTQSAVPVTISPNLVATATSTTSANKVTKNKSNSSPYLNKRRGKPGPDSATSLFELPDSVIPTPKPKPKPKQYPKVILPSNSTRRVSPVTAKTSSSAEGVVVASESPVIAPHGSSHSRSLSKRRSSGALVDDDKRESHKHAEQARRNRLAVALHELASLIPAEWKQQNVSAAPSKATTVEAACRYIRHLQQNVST
Briefly: relative binding free energy (BET-seq); higher = weaker binding. To be noted: reference: library average.
On to AATGTCACGTGTCAGG, for which the “relative binding free energy” value is 0.19 kcal/mol.

Turning to CTCATCACGTGGGGGT, the “relative binding free energy” value is -0.07 kcal/mol.

Turning to AATGACACGTGGTTTT, the “relative binding free energy” value came to 0 kcal/mol.

Regarding ATAGTCACGTGAACTG, the “relative binding free energy” value amounted to 0.32 kcal/mol.

On to TTATCCACGTGTGCGG, for which the “relative binding free energy” value turned out to be 0 kcal/mol.

For the sequence GTGGCCACGTGAATGG, the “relative binding free energy” value was found to be 0.22 kcal/mol.

Turning to TTTGGCACGTGACTTG, the “relative binding free energy” value worked out at 0.1 kcal/mol.

As to AGAAACACGTGTGTGT, the “relative binding free energy” value is 0.17 kcal/mol.

On to TAGGACACGTGTGTGT, for which the “relative binding free energy” value is 0.05 kcal/mol.

As to TTAATCACGTGGCCTG, the “relative binding free energy” value is 0.17 kcal/mol.

As for ATCCGCACGTGTTGGG, the “relative binding free energy” value is -0.06 kcal/mol.

On to GGGGGCACGTGTTGGA, for which the “relative binding free energy” value is -0.04 kcal/mol.

GTCGGCACGTGAGTAT: the “relative binding free energy” value worked out at 0.31 kcal/mol.

For the sequence GGGGACACGTGAGCGG, the “relative binding free energy” value amounted to 0.23 kcal/mol.

For the sequence TGTGACACGTGACGTT, the “relative binding free energy” value is -0.02 kcal/mol.

Take GTTGGCACGTGACTTG: the “relative binding free energy” value was -0.01 kcal/mol.

Turning to CTGTGCACGTGGGAGT, the “relative binding free energy” value was -0.15 kcal/mol.

GTGAGCACGTGGAACG: the “relative binding free energy” value amounted to 0.05 kcal/mol.

As to CGTATCACGTGGGTTG, the “relative binding free energy” value was -0.12 kcal/mol.

ATGTACACGTGGTGTC: the “relative binding free energy” value is -0.26 kcal/mol.

ATGTACACGTGATGTC: the “relative binding free energy” value stood at 0.23 kcal/mol.

Regarding ATTTTCACGTGGGACT, the “relative binding free energy” value was 0.44 kcal/mol.

Regarding GGGCGCACGTGAATGA, the “relative binding free energy” value is 0.35 kcal/mol.

For the sequence AGCGGCACGTGGGGAG, the “relative binding free energy” value is -0.25 kcal/mol.

As for ATTGTCACGTGTTGAA, the “relative binding free energy” value is -0.02 kcal/mol.

Take TTATGCACGTGTTGCT: the “relative binding free energy” value was -0.03 kcal/mol.

On to TCATACACGTGTTGAT, for which the “relative binding free energy” value was 0.11 kcal/mol.

For CATTTCACGTGTGCGT, the “relative binding free energy” value was found to be 0.27 kcal/mol.

In the case of TTTCCCACGTGTTGGT, the “relative binding free energy” value came to 0.04 kcal/mol.

Regarding TTGGGCACGTGACTGA, the “relative binding free energy” value came to 0.09 kcal/mol.

On to TGTGTCACGTGTGTCA, for which the “relative binding free energy” value stood at 0.19 kcal/mol.

As for TTCTTCACGTGCGGTA, the “relative binding free energy” value is 0.33 kcal/mol.

Regarding AACTGCACGTGGGGGG, the “relative binding free energy” value was -0.06 kcal/mol.

Take TCATTCACGTGGGGGA: the “relative binding free energy” value is 0.16 kcal/mol.

As for GTTGTCACGTGCTAGG, the “relative binding free energy” value came to 0.17 kcal/mol.

GTGCTCACGTGGTTAG: the “relative binding free energy” value was 0.21 kcal/mol.

Turning to GGGTACACGTGCGGCG, the “relative binding free energy” value amounted to 0.06 kcal/mol.

With ATTGGCACGTGTCTTA, the “relative binding free energy” value is -0.02 kcal/mol.

As for TTGCTCACGTGGCGCG, the “relative binding free energy” value amounted to 0.16 kcal/mol.

In the case of TAGAACACGTGTGGGT, the “relative binding free energy” value was -0.03 kcal/mol.

In the case of TCTTGCACGTGGCAGT, the “relative binding free energy” value was 0.09 kcal/mol.

As to TTGAGCACGTGCGAGT, the “relative binding free energy” value was -0.05 kcal/mol.

On to AGTAGCACGTGGTTGC, for which the “relative binding free energy” value was -0.07 kcal/mol.

For the sequence GGCCTCACGTGCGTGG, the “relative binding free energy” value is 0.11 kcal/mol.

For the sequence ATGTTCACGTGTGTCT, the “relative binding free energy” value was found to be 0.15 kcal/mol.

Regarding TTTGTCACGTGTTTGC, the “relative binding free energy” value was 0.03 kcal/mol.

Regarding CGGTGCACGTGTCGGT, the “relative binding free energy” value was -0.06 kcal/mol.

In the case of TGGTGCACGTGGCATT, the “relative binding free energy” value was -0.07 kcal/mol.

As for GGGCTCACGTGAATAG, the “relative binding free energy” value amounted to 0.55 kcal/mol.

For the sequence TATTGCACGTGGTCAG, the “relative binding free energy” value was -0.08 kcal/mol.

For the sequence ATTGTCACGTGGTCTG, the “relative binding free energy” value was -0.07 kcal/mol.

Take GAGCTCACGTGGTTGA: the “relative binding free energy” value stood at 0.34 kcal/mol.

With TTGAGCACGTGGACGA, the “relative binding free energy” value was found to be 0.06 kcal/mol.

With GTTTACACGTGGGCGG, the “relative binding free energy” value was -0.01 kcal/mol.

For the sequence GGTATCACGTGATGAT, the “relative binding free energy” value worked out at 0.38 kcal/mol.

With CTTGGCACGTGCGGAT, the “relative binding free energy” value was -0.13 kcal/mol.

Regarding GGGGGCACGTGCCCGT, the “relative binding free energy” value is -0.18 kcal/mol.

In the case of ATGTGCACGTGGGTTA, the “relative binding free energy” value is -0.19 kcal/mol.

For the sequence CATGGCACGTGAGGGT, the “relative binding free energy” value worked out at 0.08 kcal/mol.

In the case of CGGTCCACGTGGGGAG, the “relative binding free energy” value was -0.1 kcal/mol.

On to GTGGACACGTGGTTAG, for which the “relative binding free energy” value was -0.02 kcal/mol.

On to AAGTTCACGTGCTATT, for which the “relative binding free energy” value is 0.27 kcal/mol.

As for TTGGACACGTGTTAAG, the “relative binding free energy” value is 0.15 kcal/mol.

ATGGTCACGTGTAGTC: the “relative binding free energy” value is 0.17 kcal/mol.

Regarding ATTATCACGTGGTTGT, the “relative binding free energy” value is -0.04 kcal/mol.

TAGGACACGTGTGCTT: the “relative binding free energy” value is -0.11 kcal/mol.

Regarding GTTTGCACGTGGGAGG, the “relative binding free energy” value turned out to be 0.01 kcal/mol.

TCATTCACGTGTAATT: the “relative binding free energy” value worked out at 0.2 kcal/mol.

With GCCGGCACGTGGGGGT, the “relative binding free energy” value was -0.21 kcal/mol.

As for TAATTCACGTGGGGGG, the “relative binding free energy” value turned out to be 0.24 kcal/mol.

As to TGGCACACGTGGGGAG, the “relative binding free energy” value was -0.15 kcal/mol.

In the case of TTGCGCACGTGTTCGG, the “relative binding free energy” value was -0.12 kcal/mol.

For TTGTACACGTGCAGGT, the “relative binding free energy” value amounted to 0.09 kcal/mol.

For GGGGACACGTGTGTTT, the “relative binding free energy” value is 0.11 kcal/mol.

Regarding TATGGCACGTGTAGTC, the “relative binding free energy” value was 0.04 kcal/mol.

In the case of CTGGTCACGTGAGTTA, the “relative binding free energy” value was 0.31 kcal/mol.

As for GGTAGCACGTGATTCG, the “relative binding free energy” value came to 0.09 kcal/mol.

As to AGTGCCACGTGTGGCA, the “relative binding free energy” value is -0.01 kcal/mol.

With TGATTCACGTGTGAAC, the “relative binding free energy” value amounted to 0.45 kcal/mol.

Turning to TGATTCACGTGGAGAG, the “relative binding free energy” value worked out at 0.24 kcal/mol.

TAGGGCACGTGCCTGG: the “relative binding free energy” value is -0.15 kcal/mol.

On to TAGTTCACGTGTAATA, for which the “relative binding free energy” value came to 0.24 kcal/mol.

In the case of CGGAGCACGTGGGGTG, the “relative binding free energy” value was -0.3 kcal/mol.

As for GAGGGCACGTGCGGTC, the “relative binding free energy” value is -0.17 kcal/mol.

As for AGGTGCACGTGGGGGT, the “relative binding free energy” value was -0.2 kcal/mol.

In the case of ATGTTCACGTGGTTCC, the “relative binding free energy” value was determined as 0.29 kcal/mol.

As for GAGGCCACGTGGTGAG, the “relative binding free energy” value was -0.16 kcal/mol.

For TGTGGCACGTGCACAT, the “relative binding free energy” value was -0.1 kcal/mol.

GCGGGCACGTGAGGAG: the “relative binding free energy” value was determined as 0.22 kcal/mol.

Turning to GTCAGCACGTGAAGGG, the “relative binding free energy” value was 0.27 kcal/mol.

Turning to GTTGTCACGTGTTTCT, the “relative binding free energy” value is 0.12 kcal/mol.

Take ATAAGCACGTGTAGTA: the “relative binding free energy” value was -0.1 kcal/mol.

TTGCTCACGTGCTTGT: the “relative binding free energy” value is -0.04 kcal/mol.

In the case of GGAAACACGTGGTGTG, the “relative binding free energy” value is -0.05 kcal/mol.

On to TGTTGCACGTGAGGCG, for which the “relative binding free energy” value was 0.02 kcal/mol.

Turning to TATGTCACGTGGCGGA, the “relative binding free energy” value was 0.06 kcal/mol.

For the sequence GTTATCACGTGCTATT, the “relative binding free energy” value is 0.33 kcal/mol.

With GCGTACACGTGGAGTG, the “relative binding free energy” value was 0.03 kcal/mol.

For the sequence GGGCGCACGTGAGGCA, the “relative binding free energy” value came out at 0.18 kcal/mol.

On to GTTCTCACGTGATGGT, for which the “relative binding free energy” value stood at 0.27 kcal/mol.

As for GATAGCACGTGAGATG, the “relative binding free energy” value was 0.23 kcal/mol.

As to GGTTGCACGTGTATTA, the “relative binding free energy” value amounted to 0.19 kcal/mol.

For GTAGTCACGTGTGGCC, the “relative binding free energy” value worked out at 0.16 kcal/mol.

In the case of ATTATCACGTGGTCTT, the “relative binding free energy” value turned out to be 0.02 kcal/mol.

For CTTGCCACGTGGGGGT, the “relative binding free energy” value was -0.34 kcal/mol.

Regarding TTTATCACGTGATTTG, the “relative binding free energy” value was determined as 0.3 kcal/mol.

As for TTTATCACGTGGACAT, the “relative binding free energy” value was 0.06 kcal/mol.

For GAAATCACGTGTTTTG, the “relative binding free energy” value turned out to be 0.21 kcal/mol.

Turning to CGTACCACGTGGGGGT, the “relative binding free energy” value is -0.37 kcal/mol.

As for AGTGACACGTGTGGAG, the “relative binding free energy” value was 0.1 kcal/mol.

Take TTCGACACGTGGAGTG: the “relative binding free energy” value is -0.01 kcal/mol.

As to TTAATCACGTGTGGGC, the “relative binding free energy” value was found to be 0.21 kcal/mol.

For the sequence GAGTTCACGTGAAGCT, the “relative binding free energy” value is 0.53 kcal/mol.

For the sequence ATTGGCACGTGACTGT, the “relative binding free energy” value is -0.02 kcal/mol.

For GGGTGCACGTGTGGTT, the “relative binding free energy” value is 0.1 kcal/mol.
